Data as given in the supplement of paper PMC3334620.
In all, about 33,000 sequences were measured (“E-score (-0.5 to 0.5)”: median about -0.04, highest 2% from about 0.36 on). Some of the results follow.

These sequences were tested against T1, Hmlalpha2 (UniProt P0CY09) (assay: PBM E-score (8-mer binding enrichment) (E-score (-0.5 to 0.5)); higher = stronger / more preferred TF binding; most listed sequences are background and not binding sites). Details: protein concentration: 200 nM; construct: GST-full length.
T1 sequence: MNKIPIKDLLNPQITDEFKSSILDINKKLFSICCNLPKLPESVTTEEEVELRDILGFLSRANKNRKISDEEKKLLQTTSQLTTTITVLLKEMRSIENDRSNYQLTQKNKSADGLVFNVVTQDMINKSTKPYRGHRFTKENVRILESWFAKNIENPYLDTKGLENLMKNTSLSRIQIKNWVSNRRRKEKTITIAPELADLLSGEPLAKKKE
Procedure: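 Universal 'all 10-mer' protein binding microarrays (Agilent AMADID 015681) probed with GST-tagged S. cerevisiae TFs (full-length or DBD) made by in vitro transcription/translation (PURExpress), about 100-200 nM. Bound TF was detected with fluorescent anti-GST. Each ungapped 8-mer (which stands for itself and its reverse complement) is scored by the PBM enrichment score (E-score), a modified Wilcoxon-Mann-Whitney statistic from -0.5 to +0.5, computed with the Universal PBM Analysis Suite. Scale: above 0.35 generally sequence-specific binding.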
With CAATCCAC the “PBM E-score” value was -0.0613.
ACCGTGTA was tested, and the “PBM E-score” value was 0.473.
AACCGGTA was tested, and the “PBM E-score” value was -0.119.
TAACCTAA was tested, and the “PBM E-score” value was 0.143.
With CTCACCAC the “PBM E-score” value was -0.153.
In the case of CTGAAGAA, the “PBM E-score” value is reported as -0.319.
In the case of ATAAACAT, the “PBM E-score” value is reported as 0.383.
With GAATTGGC the “PBM E-score” value was -0.279.
In the case of GTATGCAA, the “PBM E-score” value is reported as 0.0956.
In the case of CTGTAAGA, the “PBM E-score” value is reported as 0.0715.
CCGTCTAA was tested, and the “PBM E-score” value was -0.156.
AAGGCGAG was tested, and the “PBM E-score” value was -0.25.
For GTTGAAAA, the “PBM E-score” value was 0.201.
TAAGAGGA was tested, and the “PBM E-score” value was -0.112.
For ATGGCCAC, the “PBM E-score” value was -0.057.
ATGAAAAT was tested, and the “PBM E-score” value was 0.209.
For AAAATTAC, the “PBM E-score” value was 0.285.
For CAGTTCAG, the “PBM E-score” value was -0.19.
For CGTCCCAA, the “PBM E-score” value was -0.11.
GTTAACTA was tested, and the “PBM E-score” value was 0.362.
CGCCGCGA was tested, and the “PBM E-score” value was -0.142.
For CTCACCCC, the “PBM E-score” value was -0.288.
CATCTCCC was tested, and the “PBM E-score” value was -0.286.
With GCAAAAAC the “PBM E-score” value was 0.0786.
AGGCCATG was tested, and the “PBM E-score” value was 0.0613.
With ACCTATAG the “PBM E-score” value was -0.177.
For CTCAAGAC, the “PBM E-score” value was -0.11.
TCAGTAAA was tested, and the “PBM E-score” value was 0.141.
In the case of CCTCATAC, the “PBM E-score” value is reported as -0.00926.
With AGTGACTA the “PBM E-score” value was -0.0907.
For ACAGATGC, the “PBM E-score” value was -0.0548.
For AACCGACT, the “PBM E-score” value was -0.255.
For CGACTGCA, the “PBM E-score” value was -0.14.
AACAAACC was tested, and the “PBM E-score” value was 0.178.
For CAGGGAGC, the “PBM E-score” value was -0.295.
For GAGGAGAA, the “PBM E-score” value was -0.191.
CATAACTA was tested, and the “PBM E-score” value was 0.0941.
In the case of CTTAGCCA, the “PBM E-score” value is reported as -0.06.
In the case of CGGGTACG, the “PBM E-score” value is reported as -0.222.
For CTCAGTGC, the “PBM E-score” value was -0.158.
In the case of CGCACAAG, the “PBM E-score” value is reported as -0.0655.
For AAAAGATT, the “PBM E-score” value was -0.127.
CAGAGCTA was tested, and the “PBM E-score” value was -0.237.
For GGTGCCTA, the “PBM E-score” value was -0.055.
For CAATACAA, the “PBM E-score” value was 0.256.
CACATTTC was tested, and the “PBM E-score” value was 0.0774.
AGTAACAC was tested, and the “PBM E-score” value was 0.288.
In the case of CTAGCGCA, the “PBM E-score” value is reported as -0.177.
CTCGGGAA was tested, and the “PBM E-score” value was -0.123.
CCAGACTA was tested, and the “PBM E-score” value was -0.0503.
For CCCCCCAC, the “PBM E-score” value was -0.391.
TACATGTA was tested, and the “PBM E-score” value was 0.479.
With ATGGGACC the “PBM E-score” value was -0.0949.
CCAATTAG was tested, and the “PBM E-score” value was -0.0353.
For CCCTAAAA, the “PBM E-score” value was -0.194.
In the case of GTCGGCCA, the “PBM E-score” value is reported as -0.226.
For ACCAAGCG, the “PBM E-score” value was -0.073.
With CCGATCAA the “PBM E-score” value was -0.0314.
For GGATGAAC, the “PBM E-score” value was -0.108.
With GGGCGGAA the “PBM E-score” value was -0.311.
In the case of CCTAGGAG, the “PBM E-score” value is reported as -0.13.
For TAATAGTA, the “PBM E-score” value was 0.264.
With ATCGGAAG the “PBM E-score” value was 0.046.
ACGGCACA was tested, and the “PBM E-score” value was -0.00134.
For AACGGACT, the “PBM E-score” value was -0.0339.
GTCCTCCA was tested, and the “PBM E-score” value was -0.258.
ACATCCAA was tested, and the “PBM E-score” value was 0.205.
For GTTTATTA, the “PBM E-score” value was 0.336.
For GGTAGCAA, the “PBM E-score” value was -0.113.
ATAGATCA was tested, and the “PBM E-score” value was 0.173.
With AGTTAGAC the “PBM E-score” value was 0.161.
For CTGGCAAC, the “PBM E-score” value was -0.224.
AGTCAGAA was tested, and the “PBM E-score” value was -0.18.
For TATCTAGA, the “PBM E-score” value was 0.0413.
For ATAACACA, the “PBM E-score” value was 0.439.
AAGTAGTG was tested, and the “PBM E-score” value was -0.111.
In the case of ATTGTTGA, the “PBM E-score” value is reported as 0.311.
With ATGCAAGC the “PBM E-score” value was 0.127.
In the case of GAAGCAGC, the “PBM E-score” value is reported as -0.226.
With AGGTAGCC the “PBM E-score” value was -0.131.
CATCGGCC was tested, and the “PBM E-score” value was -0.271.
CATATTGC was tested, and the “PBM E-score” value was -0.2.
In the case of CATGATGG, the “PBM E-score” value is reported as 0.00737.
In the case of CGGCACAC, the “PBM E-score” value is reported as -0.156.
In the case of ACAGCCTG, the “PBM E-score” value is reported as 0.0318.
ATTTATAA was tested, and the “PBM E-score” value was 0.175.
In the case of ACGCTACT, the “PBM E-score” value is reported as 0.0717.
With CAGGCAGC the “PBM E-score” value was -0.307.
AGATCATC was tested, and the “PBM E-score” value was 0.0764.
For ATCTAATC, the “PBM E-score” value was 0.166.
In the case of CTTGAGTA, the “PBM E-score” value is reported as 0.053.
ACAGAAGG was tested, and the “PBM E-score” value was -0.218.
In the case of CTAGTAAG, the “PBM E-score” value is reported as 0.0377.
ATAGTTGA was tested, and the “PBM E-score” value was -0.0016.
With ATACTCTG the “PBM E-score” value was 0.143.
For AAGGAGAA, the “PBM E-score” value was -0.0368.
CCGGATGC was tested, and the “PBM E-score” value was -0.178.
With CTTGATTC the “PBM E-score” value was 0.012.
ACCCAACA was tested, and the “PBM E-score” value was -0.0487.
For ACGAAGAG, the “PBM E-score” value was 0.0451.
In the case of AGAGCTAA, the “PBM E-score” value is reported as -0.129.
In the case of ACGATGTG, the “PBM E-score” value is reported as 0.19.
For TCCTTCAA, the “PBM E-score” value was 0.00135.
For TCCATCCA, the “PBM E-score” value was -0.166.
In the case of AGCTACGA, the “PBM E-score” value is reported as -0.109.
For CATTCTCC, the “PBM E-score” value was -0.0234.
For CTCAGCCC, the “PBM E-score” value was -0.268.
AAGGCGGG was tested, and the “PBM E-score” value was -0.1.
GTCGCTCA was tested, and the “PBM E-score” value was -0.101.
For CCTAGTCC, the “PBM E-score” value was -0.138.
With TCTGTACA the “PBM E-score” value was 0.258.
For AGATCTGA, the “PBM E-score” value was -0.0313.
CGATTTTC was tested, and the “PBM E-score” value was 0.00894.
With ACGCGTCG the “PBM E-score” value was 0.276.
For CGCGTGTA, the “PBM E-score” value was 0.458.
AGTATTGA was tested, and the “PBM E-score” value was 0.0644.
For CCTCTGCG, the “PBM E-score” value was -0.27.
For AAACGACA, the “PBM E-score” value was 0.235.
In the case of ACGTAAAG, the “PBM E-score” value is reported as 0.372.
In the case of GATCAGGA, the “PBM E-score” value is reported as -0.338.
GATAGATA was tested, and the “PBM E-score” value was -0.0695.
For ACAGGACT, the “PBM E-score” value was -0.101.
With AAGATGGT the “PBM E-score” value was 0.134.
CGAATTGA was tested, and the “PBM E-score” value was -0.0593.
With GATTGCAC the “PBM E-score” value was 0.121.
For CTCCACCC, the “PBM E-score” value was -0.222.
For AAGGAACT, the “PBM E-score” value was -0.108.
For ACATATAG, the “PBM E-score” value was 0.281.
TGTGAAAA was tested, and the “PBM E-score” value was 0.16.
AATGACGC was tested, and the “PBM E-score” value was 0.104.
In the case of GACGCGCA, the “PBM E-score” value is reported as 0.00745.
In the case of CGAACCGC, the “PBM E-score” value is reported as 0.0375.
For TATCATAA, the “PBM E-score” value was 0.105.
CGACGCGC was tested, and the “PBM E-score” value was 0.145.
ATCGAGAG was tested, and the “PBM E-score” value was -0.0481.
In the case of AGTGAGCA, the “PBM E-score” value is reported as 0.0429.
For AGGGGTAA, the “PBM E-score” value was 0.00981.
In the case of AACCGGGG, the “PBM E-score” value is reported as -0.223.
In the case of CGAGGCGC, the “PBM E-score” value is reported as -0.206.
For AACACCGG, the “PBM E-score” value was 0.171.
With GCCTTAAC the “PBM E-score” value was 0.116.
With CTCTGGGC the “PBM E-score” value was -0.162.
For CCTGTAGC, the “PBM E-score” value was -0.11.
With CTTGTGCA the “PBM E-score” value was 0.133.
For AGAGCGTA, the “PBM E-score” value was 0.0145.
For TACGATGA, the “PBM E-score” value was 0.171.
In the case of ACCCTACC, the “PBM E-score” value is reported as -0.244.
In the case of CCACTGAC, the “PBM E-score” value is reported as -0.29.
For CGCACCGA, the “PBM E-score” value was -0.192.
With ACAGTTCG the “PBM E-score” value was 0.0364.
In the case of AATTCGAC, the “PBM E-score” value is reported as -0.124.
For CCGTTTCG, the “PBM E-score” value was -0.00491.
In the case of CGTTGCAC, the “PBM E-score” value is reported as 0.0273.
For GATATCAC, the “PBM E-score” value was -0.0157.
In the case of TGGACAAA, the “PBM E-score” value is reported as 0.00245.
For GGCCAGCC, the “PBM E-score” value was -0.192.
With CACTGTCG the “PBM E-score” value was -0.142.
CGAAGGAC was tested, and the “PBM E-score” value was -0.0658.
ACAAGCTC was tested, and the “PBM E-score” value was 0.163.
In the case of TTTGAAAA, the “PBM E-score” value is reported as 0.229.
With ATTTATTA the “PBM E-score” value was 0.272.
GGACTGAC was tested, and the “PBM E-score” value was -0.234.
With AATTTGAG the “PBM E-score” value was -0.0616.
With ATCTCCAT the “PBM E-score” value was -0.127.
In the case of AATCAGAA, the “PBM E-score” value is reported as -0.14.
ACTATTTC was tested, and the “PBM E-score” value was 0.0764.
For ACCCCCCG, the “PBM E-score” value was -0.215.
For GACTAGTA, the “PBM E-score” value was 0.0575.
In the case of GCGGTCCC, the “PBM E-score” value is reported as -0.227.
For TCTCTACA, the “PBM E-score” value was 0.296.
AGGCACGA was tested, and the “PBM E-score” value was -0.166.
CAGAGAAC was tested, and the “PBM E-score” value was -0.00654.
